# From a collection of fitness landscapes (doi:10.1126/science.1257360)
# The list shows a part of the results.
# B1: PhoQ; a variant is named by its letters at X, in order, P23837 (parent)
# chain: MKKLLRLFFPLSLRVRFLLATAAVVLVLSLAYGMVALIGYSVSFDKTTFRLLRGESNLFYTLAKWENNKLHVELPENIDKQSPTMTLIYDENGQLLWAQRDVPWLMKMIQPDWLKSNGFHEIEADVNDTSLLLSGDHSIQQQLQEVREDDDDAEMTHSVAVNVYPATSRMPKLTIVVVDTIPVELKSSYMVWSWFIYVLSANLLLVIPLLWVAAWWSLRPIEALAKEVRELEEHNRELLNPATTRELTSLVRNLNRLLKSERERYDKYRTTLTDLTHSLKTPLXXLQXXLRSLRSEKMSVSDAEPVMLEQISRISQQIGYYLHRASMRGGTLLSRELHPVAPLLDNLTSALNKVYQRKGVNISLDISPEISFVGEQNDFVEVMGNVLDNACKYCLEFVEISARQTDEHLYIVVEDDGPGIPLSKREVIFDRGQRVDTLRPGQGVGLAVAREITEQYEGKIVAGESMLGGARMEVIFGRQHSAPKDE
# Variants of: B1
# Assay: enrichment ratio after two sorts for PhoP signalling (ratio (wild type AVST 3.29)); higher = more functional
# Conditions: with PhoP (E. coli)
row,Variant,enrichment ratio
1,WTLI,≤ 0.25
2,GNCG,≤ 0.25
3,LENR,≤ 0.25
4,QGEF,≤ 0.25
5,SEKF,≤ 0.25
6,FFCD,≤ 0.25
7,DWPS,≤ 0.25
8,THCQ,14.3
9,DRCT,≤ 0.25
10,HPVA,≤ 0.25
11,WMLN,≤ 0.25
12,HQSA,≤ 0.25
13,FYFP,≤ 0.25
14,SPKD,≤ 0.25
15,KFDY,≤ 0.25
16,TGEI,≤ 0.25
17,MGVV,15.6
18,EMHM,≤ 0.25
19,SSVA,10.9
20,QNFN,≤ 0.25
21,YSKQ,≤ 0.25
22,GNTK,≤ 0.25
23,YPGK,≤ 0.25
24,RGAN,≤ 0.25

row,Variant,enrichment ratio
1,YEAV,≤ 0.25
2,SCIR,0.574
3,KRLE,≤ 0.25
4,SSNH,2.35
5,TKIH,15.7
6,FWRH,≤ 0.25
7,LSVI,≤ 0.25
8,GNGA,≤ 0.25
9,AIYS,0.289
10,LRHH,≤ 0.25
11,HPLL,≤ 0.25
12,VFCF,≤ 0.25
13,DKWG,≤ 0.25
14,GNVD,≤ 0.25
15,AKCG,2.88
16,VLNM,≤ 0.25
17,MEKS,≤ 0.25
18,FRSR,≤ 0.25
19,RYSI,≤ 0.25
20,VHSY,≤ 0.25
21,LAAY,≤ 0.25
22,TEVT,3.71
23,NMLV,≤ 0.25
24,IETC,≤ 0.25

row,Variant,enrichment ratio
1,AMTT,≤ 0.25
2,SCIC,7.92
3,MAPY,≤ 0.25
4,FCSN,≤ 0.25
5,QTDM,≤ 0.25
6,LHTF,≤ 0.25
7,DRSK,≤ 0.25
8,WWFN,≤ 0.25
9,LDTS,≤ 0.25
10,YKKM,≤ 0.25
11,TLYL,2.86
12,SLKR,≤ 0.25
13,MVYR,≤ 0.25
14,PLVY,≤ 0.25
15,WRIQ,≤ 0.25
16,LHEA,≤ 0.25
17,YDIC,≤ 0.25
18,LTTR,≤ 0.25
19,YYLC,≤ 0.25
20,WCRQ,≤ 0.25
21,HNCA,≤ 0.25
22,WSAV,≤ 0.25
23,QRMI,≤ 0.25
24,HGCQ,≤ 0.25

row,Variant,enrichment ratio
1,NDMP,≤ 0.25
2,QLRH,≤ 0.25
3,FSHA,≤ 0.25
4,NFNC,≤ 0.25
5,WTMY,≤ 0.25
6,RTVY,≤ 0.25
7,TSSL,13.7
8,WVFA,≤ 0.25
9,EFHK,≤ 0.25
10,IIKI,≤ 0.25
11,GPNL,0.342
12,EARM,≤ 0.25
13,MSAC,10.3
14,RAPF,≤ 0.25
15,NKMY,≤ 0.25
16,LTGR,≤ 0.25
17,MCAI,8.95
18,QTMS,≤ 0.25
19,AFFG,≤ 0.25
20,VGGM,≤ 0.25
21,WNMH,≤ 0.25
22,LKYR,0.543
23,LWSL,≤ 0.25
24,TFIT,≤ 0.25

row,Variant,enrichment ratio
1,TVIR,≤ 0.25
2,ETPR,≤ 0.25
3,LAAD,≤ 0.25
4,NMGE,≤ 0.25
5,TIGF,8.05
6,HQPV,≤ 0.25
7,IYMR,≤ 0.25
8,RNIR,≤ 0.25
9,YLGV,≤ 0.25
10,HYIY,≤ 0.25
11,KAPF,≤ 0.25
12,NKYV,≤ 0.25
13,GSVK,≤ 0.25
14,KCLW,≤ 0.25
15,NIPI,≤ 0.25
16,WIPT,≤ 0.25
17,TFWT,≤ 0.25
18,FIVA,≤ 0.25
19,GSQA,≤ 0.25
20,QQGR,≤ 0.25
21,QERI,≤ 0.25
22,PRRK,≤ 0.25
23,SKRS,≤ 0.25
24,DNDI,≤ 0.25

row,Variant,enrichment ratio
1,CFAW,≤ 0.25
2,NPVT,≤ 0.25
3,HCML,3.61
4,MLGQ,≤ 0.25
5,TLFE,≤ 0.25
6,NTLF,≤ 0.25
7,FKQG,≤ 0.25
8,SIAV,12.2
9,HGSV,≤ 0.25
10,DSKQ,≤ 0.25
11,VHHM,2.3
12,ISGT,≤ 0.25
13,IAYS,≤ 0.25
14,HFCK,≤ 0.25
15,FFIW,≤ 0.25
16,KFHI,≤ 0.25
17,LRQR,≤ 0.25
18,VAIY,≤ 0.25
19,DNVM,≤ 0.25
20,YSPV,≤ 0.25
21,YGHE,≤ 0.25
22,IGPW,≤ 0.25
23,NEVH,≤ 0.25
24,PFCP,≤ 0.25

row,Variant,enrichment ratio
1,SIIW,≤ 0.25
2,PCCQ,≤ 0.25
3,KHLR,≤ 0.25
4,LTIY,≤ 0.25
5,FGAQ,≤ 0.25
6,TWTP,≤ 0.25
7,MFFW,≤ 0.25
8,AHWQ,≤ 0.25
9,FTKK,≤ 0.25
10,RYTN,≤ 0.25
11,LAIE,≤ 0.25
12,EVLH,≤ 0.25
13,FQSM,≤ 0.25
14,PRTP,≤ 0.25
15,SLRA,≤ 0.25
16,LEDY,≤ 0.25
17,QLYD,≤ 0.25
18,PQVY,≤ 0.25
19,KTTE,≤ 0.25
20,KQTF,≤ 0.25
21,TRDV,≤ 0.25
22,GVGV,≤ 0.25
23,EHFD,≤ 0.25
24,NEIY,≤ 0.25

row,Variant,enrichment ratio
1,NVTW,≤ 0.25
2,TCRY,≤ 0.25
3,DWLD,≤ 0.25
4,RNTL,≤ 0.25
5,RCDM,≤ 0.25
6,LLYS,≤ 0.25
7,QMKP,≤ 0.25
8,IPWF,≤ 0.25
9,ILTL,≤ 0.25
10,IEDA,≤ 0.25
11,ALIE,≤ 0.25
12,YWSC,≤ 0.25
13,QLLL,≤ 0.25
14,FSRI,≤ 0.25
15,PPDV,1.7
16,RDHL,≤ 0.25
17,YGNR,≤ 0.25
18,WKCS,≤ 0.25
19,TATY,6.28
20,LSSN,≤ 0.25
21,DIVY,≤ 0.25
22,DAPL,≤ 0.25
23,VIWV,≤ 0.25
24,YWQI,≤ 0.25

row,Variant,enrichment ratio
1,SWFR,≤ 0.25
2,FRMG,≤ 0.25
3,GLGD,≤ 0.25
4,SGHM,4.1
5,HALC,1.03
6,GNYQ,≤ 0.25
7,HFPV,≤ 0.25
8,PAFC,≤ 0.25
9,QLGQ,≤ 0.25
10,NSRG,≤ 0.25
11,NNLC,≤ 0.25
12,NYAR,≤ 0.25
13,VPCN,≤ 0.25
14,RWTD,≤ 0.25
15,HSAP,≤ 0.25
16,RVRV,≤ 0.25
17,IQLA,≤ 0.25
18,TLIQ,≤ 0.25
19,NFNW,≤ 0.25
20,RQWL,≤ 0.25
21,DLHK,≤ 0.25
22,VKTY,≤ 0.25
23,WKGV,≤ 0.25
24,EVRN,≤ 0.25

row,Variant,enrichment ratio
1,SHNP,≤ 0.25
2,NPVR,≤ 0.25
3,YQRV,≤ 0.25
4,DHQN,≤ 0.25
5,WNAS,≤ 0.25
6,VHED,≤ 0.25
7,PRDY,≤ 0.25
8,TSLC,18.4
9,QKRD,≤ 0.25
10,PEIS,≤ 0.25
11,KQCC,≤ 0.25
12,LACG,≤ 0.25
13,INKG,≤ 0.25
14,HKRQ,≤ 0.25
15,DANL,≤ 0.25
16,PPRE,≤ 0.25
17,PHDC,≤ 0.25
18,KDHF,≤ 0.25
19,HFPE,≤ 0.25
20,PKMY,≤ 0.25
21,DSKE,≤ 0.25
22,PLNQ,≤ 0.25
23,DYEE,≤ 0.25
24,QSAP,≤ 0.25

row,Variant,enrichment ratio
1,GAYW,≤ 0.25
2,RNSY,0.443
3,LPIY,≤ 0.25
4,LVFA,≤ 0.25
5,NPFV,≤ 0.25
6,VYVV,≤ 0.25
7,AKML,9.72
8,QEHI,0.893
9,WRGK,≤ 0.25
10,HRQF,≤ 0.25
11,WVYA,≤ 0.25
12,LFDS,≤ 0.25
13,FYHA,≤ 0.25
14,IVAF,≤ 0.25
15,TPGH,≤ 0.25
16,SPCM,≤ 0.25
17,IPCK,≤ 0.25
18,GHVN,≤ 0.25
19,TQLN,13.2
20,HHVG,≤ 0.25
21,SCVS,3.13
22,LQTN,≤ 0.25
23,VDDM,≤ 0.25
24,LNPV,≤ 0.25

row,Variant,enrichment ratio
1,FAQP,≤ 0.25
2,YHKR,≤ 0.25
3,KICH,≤ 0.25
4,FHDY,≤ 0.25
5,QMVA,≤ 0.25
6,WENR,≤ 0.25
7,LYKI,≤ 0.25
8,RWKV,≤ 0.25
9,SYQE,≤ 0.25
10,ATQM,0.38
11,LWCT,≤ 0.25
12,VLSV,≤ 0.25
13,DPGN,≤ 0.25
14,AIIT,9.24
15,AEPY,≤ 0.25
16,RMCD,≤ 0.25
17,ESEA,≤ 0.25
18,CCFG,≤ 0.25
19,NTGS,≤ 0.25
20,VHIC,≤ 0.25
21,VCSW,≤ 0.25
22,LPYI,≤ 0.25
23,WARI,≤ 0.25
24,ISEK,≤ 0.25

row,Variant,enrichment ratio
1,MTFA,≤ 0.25
2,QTGF,10.1
3,MCCG,≤ 0.25
4,RHMN,≤ 0.25
5,TGKR,≤ 0.25
6,MCPK,≤ 0.25
7,PEDM,≤ 0.25
8,LKSW,≤ 0.25
9,LYEP,≤ 0.25
10,YIYC,≤ 0.25
11,AEGI,0.618
12,DPEI,≤ 0.25
13,YAVC,≤ 0.25
14,ISAQ,≤ 0.25
15,PLKV,≤ 0.25
16,QAFF,≤ 0.25
17,YPCN,≤ 0.25
18,IHAF,≤ 0.25
